In the GPR68 mutational scans of Howard et al. (2025):
Scores whose standard error is large were omitted. Not listed are two conditions whose scores span a narrow range. Names with del lack the residues named; names with ins carry added residues between the positions named. For some assays here: How much ogerin was present is not stated here.

B1: GPR68, Q15743 (parent)
chain: MGNITADNSSMSCTIDHTIHQTLAPVVYVTVLVVGFPANCLSLYFGYLQIKARNELGVYLCNLTVADLFYICSLPFWLQYVLQHDNWSHGDLSCQVCGILLYENIYISVGFLCCISVDRYLAVAHPFRFHQFRTLKAAVGVSVVIWAKELLTSIYFLMHEEVIEDENQHRVCFEHYPIQAWQRAINYYRFLVGFLFPICLLLASYQGILRAVRRSHGTQKSRKDQIQRLVLSTVVIFLACFLPYHVLLLVRSVWEASCDFAKGVFNAYHFSLLLTSFNCVADPVLYCFVSETTHRDLARLRGACLAFLTCSRTGRAREAYPLGAPEASGKSGAQGEEPELLTKLHPAFQTPNSPGSGGFPTGRLA

What was measured:
[1] = variants of: B1; assay: cAMP reporter score (Enrich2 score, wild type = 0); higher = more signal; HEK293T, FACS bins
[2] = variants of: B1; assay: surface expression score (Enrich2 score, wild type = 0); higher = more signal; HEK293T, FACS bins

Row | Variant | cAMP reporter score ([1]; pH 5.5) | cAMP reporter score ([1]; pH 6, modulator: ogerin) | surface expression score [2] | cAMP reporter score ([1]; pH 6) | cAMP reporter score ([1]; pH 6.5, modulator: ogerin)
1 | Y244R | -1.9 | -2.28 | -2.66 | – | –
2 | Y244S | -0.482 | -0.713 | – | -0.204 | –
3 | Y244T | -0.756 | – | -2.16 | -1.21 | -0.778
4 | Y244V | -1.46 | -1.65 | -1.5 | -1.24 | -1.2
5 | Y244W | -0.21 | -0.762 | -1.8 | -0.58 | -1.16
6 | Y244_H245del | 0.026 | – | -2 | -0.244 | -1.09
7 | Y244_H245insG | -1.11 | -1.43 | -1.86 | -1.7 | -0.558
8 | Y244del | -1.64 | -2.48 | -2.61 | -1.15 | -1.34
9 | H245_V246del | -1.54 | -1.54 | -2.13 | -1.4 | -1.36
10 | H245_V246insG | -2.5 | -1.88 | -2.09 | -1.35 | -1.53
11 | H245_V246insGS | -1.36 | -1.49 | -2.18 | -0.757 | -0.75
12 | H245_V246insGSG | -1.6 | -1.66 | -2.54 | -0.982 | -1.2
13 | H245del | -1.51 | -1.6 | -2.48 | -0.72 | -0.993
14 | V246A | -0.009 | -0.384 | -0.049 | -0.804 | -0.443
15 | V246C | 0.952 | -0.665 | – | 0.034 | –
16 | V246D | -1.4 | -1.39 | -1.84 | -0.706 | -0.802

Row | Variant | cAMP reporter score ([1]; pH 5.5) | cAMP reporter score ([1]; pH 6, modulator: ogerin) | surface expression score [2] | cAMP reporter score ([1]; pH 6) | cAMP reporter score ([1]; pH 6.5, modulator: ogerin)
17 | V246E | -0.534 | -1.17 | -1 | -0.705 | -0.706
18 | V246F | 0.445 | 0.287 | -0.389 | – | -0.363
19 | V246G | 0.808 | 0.376 | -0.557 | -0.816 | -0.497
20 | V246H | -1.78 | -2.1 | -1.95 | -1.68 | -0.279
21 | V246I | 0.317 | 0.326 | -0.436 | 0.922 | -0.657
22 | V246L | 0.501 | 0.336 | – | 0.222 | 0.93
23 | V246M | -0.032 | -0.181 | -0.469 | -0.19 | 0.231
24 | V246N | -1.35 | – | -2.05 | -0.844 | -2.39
25 | V246P | -1.21 | -1.73 | -1.86 | -2.17 | -1.31
26 | V246Q | -1.28 | -1.23 | -1.9 | -0.876 | -1.14
27 | V246R | -0.768 | -0.841 | -2.12 | -0.188 | -0.871
28 | V246S | 0.089 | 0.188 | -0.806 | -0.197 | 0.133
29 | V246T | 0.472 | 0.908 | -0.917 | 0.152 | -0.342
30 | V246W | -1.62 | -2.43 | -1.91 | -0.651 | 0.071
31 | V246Y | -1.58 | -1.1 | -2.68 | -1.19 | -1.66
32 | V246_L247del | -0.078 | -1.04 | -2.24 | -0.466 | -0.116
